# Reference: the supplement of paper PMC8728848
# The other results are listed elsewhere or left out.
# Assays:
# Experiment in all cases: glycan array binding signal (z-score within array); higher = stronger binding
# Conditions in all cases: glycan notation: IUPAC condensed, linker removed
# [1] = target: Neu5Ac(a2-3)Gal(b1-3)GalNAc(b1-4)[Neu5Ac(a2-8)Neu5Ac(a2-3)]Gal(b1-4)Glc
# Summary of the method: (§1)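 The binding signal is a Z-score computed within each array. Data were drawn from 3228 arrays in the Consortium for Functional Glycomics database, restricted to those with a known protein sequence. Scores were averaged over arrays of the same protein sequence at different concentrations or buffers, and over linkers, and negative values can be taken as non-binding.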
# [2] = target: Neu5Ac(a2-3)Gal(b1-3)GalNAc6S
# Summary of the method: as §1
# [3] = target: Neu5Ac(a2-3)Gal(b1-3)GlcNAc
# Summary of the method: as §1
# [4] = target: Neu5Ac(a2-3)Gal(b1-3)GlcNAc(b1-2)Man
# Summary of the method: as §1
# [5] = target: Neu5Ac(a2-3)Gal(b1-3)GlcNAc(b1-2)Man(a1-3)[GlcNAc(b1-4)][Neu5Ac(a2-3)Gal(b1-3)GlcNAc(b1-2)Man(a1-6)]Man(b1-4)GlcNAc(b1-4)GlcNAc
# Summary of the method: as §1
# [6] = target: Neu5Ac(a2-3)Gal(b1-3)GlcNAc(b1-2)Man(a1-3)[Neu5Ac(a2-3)Gal(b1-3)GlcNAc(b1-2)Man(a1-6)]Man(b1-4)GlcNAc(b1-4)GlcNAc
# Summary of the method: as §1
# [7] = target: Neu5Ac(a2-3)Gal(b1-3)GlcNAc(b1-3)Gal(b1-3)GlcNAc
# Summary of the method: as §1
# [8] = target: Neu5Ac(a2-3)Gal(b1-3)GlcNAc(b1-3)Gal(b1-4)GlcNAc
# Summary of the method: as §1
# [9] = target: Neu5Ac(a2-3)Gal(b1-3)GlcNAc(b1-3)GalNAc
# Summary of the method: as §1
# [10] = target: Neu5Ac(a2-3)Gal(b1-3)GlcNAc(b1-4)Gal(b1-4)Glc
# Summary of the method: as §1
# [11] = target: Neu5Ac(a2-3)Gal(b1-3)GlcNAc(b1-6)GalNAc
# Summary of the method: as §1
# [12] = target: Neu5Ac(a2-3)Gal(b1-3)GlcNAc6S
# Summary of the method: as §1
# [13] = target: Neu5Ac(a2-3)Gal(b1-3)[Fuc(a1-4)]GlcNAc
# Summary of the method: as §1
# [14] = target: Neu5Ac(a2-3)Gal(b1-3)[Fuc(a1-4)]GlcNAc(b1-3)Gal(b1-3)[Fuc(a1-4)]GlcNAc
# Summary of the method: as §1
# [15] = target: Neu5Ac(a2-3)Gal(b1-3)[Fuc(a1-4)]GlcNAc(b1-3)Gal(b1-4)[Fuc(a1-3)]GlcNAc
# Summary of the method: as §1
# [16] = target: Neu5Ac(a2-3)Gal(b1-3)[GlcNAc(b1-6)]GalNAc
# Summary of the method: as §1
# [17] = target: Neu5Ac(a2-3)Gal(b1-3)[Neu5Ac(a2-3)Gal(b1-4)]GlcNAc
# Summary of the method: as §1
# [18] = target: Neu5Ac(a2-3)Gal(b1-3)[Neu5Ac(a2-6)]GalNAc
# Summary of the method: as §1
# [19] = target: Neu5Ac(a2-3)Gal(b1-3)[Neu5Ac(a2-6)]GlcNAc(b1-3)[Fuc(a1-3)[Gal(b1-4)]GlcNAc(b1-6)]Gal(b1-4)Glc
# Summary of the method: as §1
# [20] = target: Neu5Ac(a2-3)Gal(b1-3)]Neu5Ac(a2-3)Gal(b1-4)]GlcNAc
# Summary of the method: as §1
# [21] = target: Neu5Ac(a2-3)Gal(b1-4)Glc
# Summary of the method: as §1
# [22] = target: Neu5Ac(a2-3)Gal(b1-4)GlcNAc
# Summary of the method: as §1
# [23] = target: Neu5Ac(a2-3)Gal(b1-4)GlcNAc(b1-2)Man
# Summary of the method: as §1
# [24] = target: Neu5Ac(a2-3)Gal(b1-4)GlcNAc(b1-2)Man(a1-3)[GlcNAc(b1-2)Man(b1-4)GlcNAc(b1-2)Man(a1-6)]Man(b1-4)GlcNAc(b1-4)GlcNAc
# Summary of the method: as §1
# [25] = target: Neu5Ac(a2-3)Gal(b1-4)GlcNAc(b1-2)Man(a1-3)[GlcNAc(b1-4)][Neu5Ac(a2-3)Gal(b1-4)GlcNAc(b1-2)Man(a1-6)]Man(b1-4)GlcNAc(b1-4)GlcNAc
# Summary of the method: as §1
# [26] = target: Neu5Ac(a2-3)Gal(b1-4)GlcNAc(b1-2)Man(a1-3)[Neu5Ac(a2-3)Gal(b1-4)GlcNAc(b1-2)Man(a1-6)]Man(b1-4)GlcNAc(b1-4)GlcNAc
# Summary of the method: as §1
# [27] = target: Neu5Ac(a2-3)Gal(b1-4)GlcNAc(b1-2)Man(a1-3)[Neu5Ac(a2-3)Gal(b1-4)GlcNAc(b1-2)Man(a1-6)]Man(b1-4)GlcNAc(b1-4)[Fuc(a1-6)]GlcNAc
# Summary of the method: as §1
# [28] = target: Neu5Ac(a2-3)Gal(b1-4)GlcNAc(b1-2)Man(a1-3)[Neu5Ac(a2-6)Gal(b1-4)GlcNAc(b1-2)Man(a1-6)]Man(b1-4)GlcNAc(b1-4)GlcNAc
# Summary of the method: as §1
# [29] = target: Neu5Ac(a2-3)Gal(b1-4)GlcNAc(b1-2)[Neu5Ac(a2-3)Gal(b1-4)GlcNAc(b1-4)]Man(a1-3)[GlcNAc(b1-4)][Neu5Ac(a2-3)Gal(b1-4)GlcNAc(b1-2)[Neu5Ac(a2-3)Gal(b1-4)GlcNAc(b1-6)]Man(a1-6)]Man(b1-4)GlcNAc(b1-4)GlcNAc
# Summary of the method: as §1
# [30] = target: Neu5Ac(a2-3)Gal(b1-4)GlcNAc(b1-2)[Neu5Ac(a2-3)Gal(b1-4)GlcNAc(b1-4)]Man(a1-3)[GlcNAc(b1-4)][Neu5Ac(a2-3)Gal(b1-4)GlcNAc(b1-4)Man(a1-6)]Man(b1-4)GlcNAc(b1-4)GlcNAc
# Summary of the method: as §1
# [31] = target: Neu5Ac(a2-3)Gal(b1-4)GlcNAc(b1-2)[Neu5Ac(a2-3)Gal(b1-4)GlcNAc(b1-6)]Man(a1-6)[Neu5Ac(a2-3)Gal(b1-4)GlcNAc(b1-2)Man(a1-3)]Man(b1-4)GlcNAc(b1-4)GlcNAc
# Summary of the method: as §1
# [32] = target: Neu5Ac(a2-3)Gal(b1-4)GlcNAc(b1-2)[Neu5Ac(a2-3)Gal(b1-4)GlcNAc(b1-6)]Man(a1-6)[Neu5Ac(a2-3)Gal(b1-4)GlcNAc(b1-2)Man(a1-3)][GlcNAc(b1-4)]Man(b1-4)GlcNAc(b1-4)GlcNAc
# Summary of the method: as §1
# [33] = target: Neu5Ac(a2-3)Gal(b1-4)GlcNAc(b1-3)Gal
# Summary of the method: as §1
# [34] = target: Neu5Ac(a2-3)Gal(b1-4)GlcNAc(b1-3)Gal(b1-3)GlcNAc
# Summary of the method: as §1
binder,measurement,setting,value
Gal 8 (Homo sapiens) (protein) MLSLNNLQNIIYNPVIPYVGTIPDQLDPGTLIVICGHVPSDADRFQVDLQNGSSVKPRADVAFHFNPRFKRAGCIVCNTLINEKWGREEITYDTPFKREKSFEIVIMVLKDKFQVAVNGKHTLLYGHRIGPEKIDTLGIYGKVNIHSIGFSFSSDLQSTQASSLELTEISRENVPKSGTPQLQTVSPSWDLQGHGSETFCSVLWTRVFLEIAFCRPIGLTVASFQSLPFAARLNTPMGPGRTVVVKGEVNANAKSFNVDLLAGKSKDIALHLNPRLNIKAFVRNSFLQESWGEEERNITSFPFSPGMYFEMIIYCDVREFKVAVNGVHSLEYKHRFKELSSIDTLEINGDIHLLEVRSW,glycan array binding signal (z-score),[1],-0.308
same,glycan array binding signal (z-score),[2],0.619
same,glycan array binding signal (z-score),[3],0.664
same,glycan array binding signal (z-score),[4],0.02
same,glycan array binding signal (z-score),[5],-0.352
same,glycan array binding signal (z-score),[6],-0.328
same,glycan array binding signal (z-score),[7],2.53
same,glycan array binding signal (z-score),[8],0.762
same,glycan array binding signal (z-score),[9],-0.168
same,glycan array binding signal (z-score),[10],-0.356
same,glycan array binding signal (z-score),[11],-0.165
same,glycan array binding signal (z-score),[12],1.01
same,glycan array binding signal (z-score),[13],-0.374
same,glycan array binding signal (z-score),[14],-0.356
same,glycan array binding signal (z-score),[15],-0.214
same,glycan array binding signal (z-score),[16],-0.256
same,glycan array binding signal (z-score),[17],-0.317
same,glycan array binding signal (z-score),[18],-0.088
same,glycan array binding signal (z-score),[19],-0.214
same,glycan array binding signal (z-score),[20],-0.357
same,glycan array binding signal (z-score),[21],0.714
same,glycan array binding signal (z-score),[22],0.003
same,glycan array binding signal (z-score),[23],-0.352
same,glycan array binding signal (z-score),[24],-0.329
same,glycan array binding signal (z-score),[25],-0.354
same,glycan array binding signal (z-score),[26],-0.581
same,glycan array binding signal (z-score),[27],-0.325
same,glycan array binding signal (z-score),[28],-0.33
same,glycan array binding signal (z-score),[29],-0.267
same,glycan array binding signal (z-score),[30],-0.314
same,glycan array binding signal (z-score),[31],-0.098
same,glycan array binding signal (z-score),[32],-0.329
same,glycan array binding signal (z-score),[33],-0.345
same,glycan array binding signal (z-score),[34],-0.191
